{"source": "ChEMBL document CHEMBL4888484", "about": "“Replenishing the malaria drug discovery pipeline: Screening and hit evaluation of the MMV Hit Generation Library 1 (HGL1) against asexual blood stage Plasmodium falciparum ,using a nano luciferase reporter read-out” (2022)", "note": "Hit rate of the full screen: of about 150,000 compounds, about 540 (0.36%) showed an effect of 50% or more. The list shows a part of the results.", "data": [{"test_system": "Plasmodium falciparum", "test": "Primary screen in NF54 nanoGlo assay, in single point, at 2uM, 72h; a lower Z score goes with more inhibition", "type": "functional, Erythrocyte", "conditions": "timepoint 72 hour", "units": {"% Inhibition": "%"}, "values": [{"compound": "COc1cccc([C@H]2CC(=O)Nc3c(C(=O)O)cn(-c4cccc(OC)c4)c32)c1", "% Inhibition": 35, "Z score": -3.94}, {"compound": "Cc1c2c(C(F)(F)F)cc(=O)n(CCC(=O)Nc3ncc(Cl)cc3Cl)c2nn1C", "% Inhibition": 31, "Z score": -4.15}, {"compound": "CCOC1CC(N(C)C(=O)NCc2cc(C(N)=O)co2)C12CCC2", "note": "(stereo not drawn)", "% Inhibition": -6, "Z score": 0.77}, {"compound": "CCCOC[C@H]1CCN(C(=O)c2cc3ncccn3n2)C1", "% Inhibition": -6, "Z score": 0.87}, {"compound": "Cc1cc(-c2cc(OC(C)C)nc(N)n2)[nH]n1", "% Inhibition": 1, "Z score": -0.28}, {"compound": "CC(C)C(=O)N1CCOc2ccc(CN3CCOCC3)cc2C1", "% Inhibition": -16, "Z score": 1.72}, {"compound": "Cc1cnn(CCC(=O)N2C[C@H]3CCCC(=O)N(Cc4cccc(F)c4)[C@H]3C2)c1", "% Inhibition": 30, "Z score": -3.41}, {"compound": "C=CCN(Cc1ccccc1OCC)C(=O)CCC(F)(F)F", "% Inhibition": 12, "Z score": -1.54}, {"compound": "COc1cc(C(=O)Nc2cccnc2)ccc1OCc1c(Cl)cccc1Cl", "% Inhibition": 9, "Z score": -1.06}, {"compound": "CO[C@H]1CN(C(C)C)C[C@@H]1NC(=O)N1CC(n2nc(C)cc2C)C1", "% Inhibition": -8, "Z score": 1.35}, {"compound": "CCN1[C@H](C)CN(c2nccc(C(F)(F)F)n2)C[C@@H]1C", "% Inhibition": -2, "Z score": 0.23}, {"compound": "Cc1cc(C)cc(C(=O)Nc2cccnc2N2C(=O)OC(C(F)(F)F)C2C)c1", "note": "(stereo not drawn)", "% Inhibition": -18, "Z score": 2.33}, {"compound": "CNC(=O)CN1CCN(Cc2[nH]cnc2C)CC1", "% Inhibition": -10, "Z score": 0.95}, {"compound": "CCN1C[C@@H](C(=O)Nc2csc(N3CCCCC3)n2)CC1=O", "% Inhibition": -2, "Z score": 0.4}, {"compound": "Cc1c(-c2ccccc2)[nH]c2c(CNC(=O)[C@@H]3CNC(=O)C3)cc(Cl)cc12", "% Inhibition": -4, "Z score": 0.48}, {"compound": "CC(CC1CCC1)N[C@H](C(=O)OC(C)(C)C)C(C)C", "note": "(stereo partly drawn)", "% Inhibition": -20, "Z score": 1.71}, {"compound": "O=C(Nc1cnn(-c2nccs2)c1)N1CCCC[C@@H]1CO", "% Inhibition": -6, "Z score": 0.78}, {"compound": "O=C(NS(=O)(=O)CCC1CCCCC1)[C@H]1C[C@@H]1C1CCC1", "% Inhibition": -5, "Z score": 0.86}, {"compound": "COc1nccnc1N1CCC[C@H](C(=O)c2ccccn2)C1", "% Inhibition": -1, "Z score": 0.21}, {"compound": "O=C(Cc1ccccc1Br)N1CC2CC1CO2", "note": "(stereo not drawn)", "% Inhibition": -14, "Z score": 1.57}, {"compound": "COC[C@@H]1C[C@H](OC)CN1C(=O)NCC1CCCCS1(=O)=O", "note": "(stereo partly drawn)", "% Inhibition": -11, "Z score": 1.38}, {"compound": "O=C(N[C@H]1C[C@@H]2C[C@H]1CN2C(=O)c1ccc(OC(F)(F)F)cc1)c1cccs1", "% Inhibition": -2, "Z score": 0.24}, {"compound": "CCCCn1ncc(C)c1NC(=O)Cc1cccnc1", "% Inhibition": -7, "Z score": 1.39}, {"compound": "Cc1cccc(NC(=O)c2oc(C3CC3)nc2C)c1C", "% Inhibition": -7, "Z score": 1.14}, {"compound": "C[C@@H]1CN(Cc2nnnn2CC(=O)N(C)CCC2CCOCC2)C[C@H](C)O1", "% Inhibition": -8, "Z score": 1.02}, {"compound": "Cc1ccc(Nc2[nH]nnc2C(=O)Nc2ccc3c(c2)OCCO3)cc1C", "% Inhibition": -13, "Z score": 1.47}, {"compound": "CC1CCN(Cn2c(=S)sc3ccccc32)CC1", "% Inhibition": -4, "Z score": 0.63}, {"compound": "Cc1ccc2c(O)c(C(=O)N3CCCN(c4ccccc4C#N)CC3)cnc2n1", "% Inhibition": -6, "Z score": 1.19}, {"compound": "CCOCC1CCN(C(=O)C2CCOC(c3ccccc3)O2)C1", "note": "(stereo not drawn)", "% Inhibition": -19, "Z score": 3.31}, {"compound": "CCc1ccc(-c2cn(CCS(=O)(=O)N3CCCC3)nn2)o1", "% Inhibition": -3, "Z score": 0.62}, {"compound": "Cc1nc(C(=O)NCCc2cccnc2)c(C)n1C1CCN(S(C)(=O)=O)CC1", "% Inhibition": -16, "Z score": 2.76}, {"compound": "O=C1CCCc2[nH]c(=O)c(C(=O)N3CCC[C@H](C(F)(F)F)C3)cc21", "% Inhibition": 0, "Z score": 0.02}, {"compound": "CCC(C)CN(CC(=O)N1CCc2sccc2C1COc1ccc(Cl)cc1)C(=O)Cc1ccccc1", "note": "(stereo not drawn)", "% Inhibition": -13, "Z score": 1.78}, {"compound": "O=C1CC2(CCN(C(=O)C3CC(=O)N(c4c(F)cccc4F)C3)C2)CN1", "note": "(stereo not drawn)", "% Inhibition": -5, "Z score": 0.81}, {"compound": "C#CCCC1(CCC(=O)N2CC(c3ccccc3)C3CCCC32)N=N1", "note": "(stereo not drawn)", "% Inhibition": 4, "Z score": -0.44}, {"compound": "CC(C)c1noc(N2C[C@H](C(N)=O)[C@@H](C(F)(F)F)C2)n1", "% Inhibition": -3, "Z score": 0.61}, {"compound": "CCOc1ccccc1NC(=O)c1c(NCc2sccc2C)sc2c1CCCCC2", "% Inhibition": -4, "Z score": 0.63}, {"compound": "Cc1nn(CC(N)=O)c(C)c1-c1ccc(C(=O)N2CCC(F)(F)CC2)cc1", "% Inhibition": -4, "Z score": 0.65}, {"compound": "Cn1cc([C@@H]2CC(=O)Nc3c2cnn3Cc2ccccc2)cn1", "% Inhibition": 2, "Z score": -0.27}, {"compound": "O=C(NCC(=O)N1C2COCC1C2)c1cccc(F)c1", "% Inhibition": -4, "Z score": 0.54}, {"compound": "CC(C)CCn1nc(C(=O)O)c2c1CCN(C(=O)CCn1ccnc1)C2", "% Inhibition": -11, "Z score": 1.02}, {"compound": "CCCc1nc(N2CCCN(C(=O)Nc3ccccc3F)CC2)c2c(C)nn(-c3ccccc3)c2n1", "% Inhibition": -1, "Z score": 0.26}, {"compound": "COC(C)(C1CC1)C(C)Nc1nc(C)ns1", "note": "(stereo not drawn)", "% Inhibition": -42, "Z score": 4.89}, {"compound": "Fc1cccc(-c2nc(-c3ccc4c(c3)OCO4)no2)c1", "% Inhibition": -9, "Z score": 1.27}, {"compound": "O=S(=O)(Cc1cc(Cl)cc(Cl)c1)N1CC[C@H]2CC[C@@H](C1)N2", "% Inhibition": -14, "Z score": 2.02}, {"compound": "Cc1nc(N)nc(-c2cccc(C(=O)N3CCC4(CCO4)CC3)c2)c1Cl", "% Inhibition": 3, "Z score": -0.39}, {"compound": "O=C(NC1CCOC1c1ccc(Cl)cc1)c1ccc[nH]1", "note": "(stereo not drawn)", "% Inhibition": -11, "Z score": 1.2}, {"compound": "CCCC[C@H](NCCn1cc(C)cn1)C(N)=O", "% Inhibition": -15, "Z score": 1.9}, {"compound": "O=c1c2ccccc2cnn1Cc1cc(Cl)c2c(c1)OCCCO2", "% Inhibition": 2, "Z score": -0.33}, {"compound": "COC(=O)[C@H](COC(C)(C)C)NC(=O)OCc1ccccc1", "% Inhibition": -2, "Z score": 0.27}, {"compound": "c1ccc(Cn2nnc(C3(c4ccccc4)CCOCC3)n2)cc1", "% Inhibition": -7, "Z score": 0.89}, {"compound": "Fc1ccccc1N1CCN(C2CCN(Cc3ccncc3)CC2)CC1", "% Inhibition": 20, "Z score": -2.44}, {"compound": "O=C(Cn1c(=O)n(-c2cc(F)cc(F)c2)c(=O)c2sccc21)Nc1ccc(F)cc1F", "% Inhibition": -5, "Z score": 0.86}, {"compound": "CN(CC(N)=O)C(=O)CCc1cc(Cl)ccc1Br", "% Inhibition": -15, "Z score": 1.89}]}]}
